# Laboratory results reported in the supplement of paper PMC8728848.
# Some of the results follow.
# How the values were obtained:
# Assay in all cases: glycan array binding signal (z-score within array); higher = stronger binding
# Details in all cases: glycan notation: IUPAC condensed, linker removed; mutation: F335Y
# Fuc(a1-2)Gal = target: Fuc(a1-2)Gal
# How it was run: (§1)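 The Consortium for Functional Glycomics database supplied 3228 glycan arrays, of which those lacking an available protein sequence were dropped. The binding signal, a within-array Z-score, was averaged across arrays of the same protein sequence and across linkers. Negative scores can be read as non-binding.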
# Fuc(a1-2)Gal(b1-3)GalNAc = target: Fuc(a1-2)Gal(b1-3)GalNAc
# How it was run: as §1
# [1] = target: Fuc(a1-2)Gal(b1-3)GalNAc(b1-3)Gal
# How it was run: as §1
# [2] = target: Fuc(a1-2)Gal(b1-3)GalNAc(b1-3)Gal(a1-4)Gal(b1-4)Glc
# How it was run: as §1
# [3] = target: Fuc(a1-2)Gal(b1-3)GalNAc(b1-4)[Neu5Ac(a2-3)]Gal(b1-4)Glc
# How it was run: as §1
# Fuc(a1-2)Gal(b1-3)GlcNAc = target: Fuc(a1-2)Gal(b1-3)GlcNAc
# How it was run: as §1
# [4] = target: Fuc(a1-2)Gal(b1-3)GlcNAc(b1-3)Gal(b1-4)Glc
# How it was run: as §1
# [5] = target: Fuc(a1-2)Gal(b1-3)[Fuc(a1-4)]GlcNAc
# How it was run: as §1
# Fuc(a1-2)Gal(b1-4)Glc = target: Fuc(a1-2)Gal(b1-4)Glc
# How it was run: as §1
# Fuc(a1-2)Gal(b1-4)Glc6S = target: Fuc(a1-2)Gal(b1-4)Glc6S
# How it was run: as §1
# Fuc(a1-2)Gal(b1-4)GlcNAc = target: Fuc(a1-2)Gal(b1-4)GlcNAc
# How it was run: as §1
# [6] = target: Fuc(a1-2)Gal(b1-4)GlcNAc(b1-3)Gal(b1-4)GlcNAc
# How it was run: as §1
# [7] = target: Fuc(a1-2)Gal(b1-4)GlcNAc(b1-3)Gal(b1-4)GlcNAc(b1-3)Gal(b1-4)GlcNAc
# How it was run: as §1
# [8] = target: Fuc(a1-2)Gal(b1-4)GlcNAc6S
# How it was run: as §1
# [9] = target: Fuc(a1-2)Gal(b1-4)[Fuc(a1-3)]GlcNAc
# How it was run: as §1
# [10] = target: Fuc(a1-2)Gal(b1-4)[Fuc(a1-3)]GlcNAc(b1-3)Gal(b1-4)[Fuc(a1-3)]GlcNAc
# How it was run: as §1
# [11] = target: Fuc(a1-2)Gal(b1-4)[Fuc(a1-3)]GlcNAc(b1-3)Gal(b1-4)[Fuc(a1-3)]GlcNAc(b1-3)Gal(b1-4)[Fuc(a1-3)]GlcNAc
# How it was run: as §1
# Fuc(a1-2)Gal6S(b1-4)Glc = target: Fuc(a1-2)Gal6S(b1-4)Glc
# How it was run: as §1
# [12] = target: Fuc(a1-2)Gal6S(b1-4)Glc6S
# How it was run: as §1
# [13] = target: Fuc(a1-2)Gal6S(b1-4)GlcNAc
# How it was run: as §1
# Fuc(a1-2)[Gal(a1-3)]Gal = target: Fuc(a1-2)[Gal(a1-3)]Gal
# How it was run: as §1
# [14] = target: Fuc(a1-2)[Gal(a1-3)]Gal(b1-3)GlcNAc
# How it was run: as §1
# [15] = target: Fuc(a1-2)[Gal(a1-3)]Gal(b1-4)Glc
# How it was run: as §1
# [16] = target: Fuc(a1-2)[Gal(a1-3)]Gal(b1-4)GlcNAc
# How it was run: as §1
# [17] = target: Fuc(a1-2)[Gal(a1-3)]Gal(b1-4)[Fuc(a1-3)]GlcNAc
# How it was run: as §1
# [18] = target: Fuc(a1-2)[Gal(a1-4)]Gal(b1-4)GlcNAc
# How it was run: as §1
# [19] = target: Fuc(a1-2)[GalNAc(a1-3)]Gal
# How it was run: as §1
# [20] = target: Fuc(a1-2)[GalNAc(a1-3)]Gal(b1-3)GlcNAc
# How it was run: as §1
# [21] = target: Fuc(a1-2)[GalNAc(a1-3)]Gal(b1-4)Glc
# How it was run: as §1
# [22] = target: Fuc(a1-2)[GalNAc(a1-3)]Gal(b1-4)GlcNAc
# How it was run: as §1
# [23] = target: Fuc(a1-2)[GalNAc(a1-3)]Gal(b1-4)[Fuc(a1-3)]GlcNAc
# How it was run: as §1
# [24] = target: Fuc(a1-2)[GalNAc(a1-4)]Gal(b1-4)GlcNAc
# How it was run: as §1
# [25] = target: Fuc(a1-2)[GalNAc(b1-3)]Gal
# How it was run: as §1
# Fuc(a1-3)GlcNAc = target: Fuc(a1-3)GlcNAc
# How it was run: as §1
# [26] = target: Fuc(a1-3)[Gal(b1-4)]Glc6S
# How it was run: as §1
# [27] = target: Fuc(a1-3)[Gal(b1-4)]GlcNAc
# How it was run: as §1
# [28] = target: Fuc(a1-3)[Gal(b1-4)]GlcNAc(b1-2)Man(a1-3)[Fuc(a1-3)[Gal(b1-4)]GlcNAc(b1-2)Man(a1-6)]Man(b1-4)GlcNAc(b1-4)GlcNAc
# How it was run: as §1
# [29] = target: Fuc(a1-3)[Gal(b1-4)]GlcNAc(b1-2)Man(a1-6)[Gal(b1-4)GlcNAc(b1-2)Man(a1-3)]Man(b1-4)GlcNAc(b1-4)GlcNAc
# How it was run: as §1
# [30] = target: Fuc(a1-3)[Gal(b1-4)]GlcNAc(b1-3)Gal(b1-3)[Fuc(a1-4)]GlcNAc
# How it was run: as §1
# [31] = target: Fuc(a1-3)[Gal(b1-4)]GlcNAc(b1-4)Gal(b1-4)[Fuc(a1-3)]GlcNAc
# How it was run: as §1
# [32] = target: Fuc(a1-3)[Gal(b1-4)]GlcNAc(b1-4)Gal(b1-4)[Fuc(a1-3)]GlcNAc(b1-4)Gal(b1-4)[Fuc(a1-3)]GlcNAc
# How it was run: as §1
# [33] = target: Fuc(a1-3)[Gal(b1-4)]GlcNAc6S
# How it was run: as §1
# [34] = target: Fuc(a1-3)[Gal3S(b1-4)]Glc6S
# How it was run: as §1
# [35] = target: Fuc(a1-3)[Gal3S(b1-4)]GlcNAc
# How it was run: as §1
# [36] = target: Fuc(a1-3)[Gal3S(b1-4)]GlcNAc6S
# How it was run: as §1
# [37] = target: Fuc(a1-3)[GalNAc(b1-4)]GlcNAc
# How it was run: as §1
# Fuc(a1-4)GlcNAc = target: Fuc(a1-4)GlcNAc
# How it was run: as §1
# Fuc(b1-3)GlcNAc = target: Fuc(b1-3)GlcNAc
# How it was run: as §1
# Gal(a1-2)Gal = target: Gal(a1-2)Gal
# How it was run: as §1
# Gal(a1-3)Gal = target: Gal(a1-3)Gal
# How it was run: as §1
# Gal(a1-3)Gal(b1-3)GlcNAc = target: Gal(a1-3)Gal(b1-3)GlcNAc
# How it was run: as §1
# Gal(a1-3)Gal(b1-4)Glc = target: Gal(a1-3)Gal(b1-4)Glc
# How it was run: as §1
# Gal(a1-3)Gal(b1-4)GlcNAc = target: Gal(a1-3)Gal(b1-4)GlcNAc
# How it was run: as §1
# [38] = target: Gal(a1-3)Gal(b1-4)[Fuc(a1-3)]GlcNAc
# How it was run: as §1
# Gal(a1-3)GalNAc = target: Gal(a1-3)GalNAc
# How it was run: as §1
# [39] = target: Gal(a1-3)[Gal(a1-4)]Gal(b1-4)GlcNAc
# How it was run: as §1
# Gal(a1-4)Gal(b1-4)Glc = target: Gal(a1-4)Gal(b1-4)Glc
# How it was run: as §1
# Gal(a1-4)Gal(b1-4)GlcNAc = target: Gal(a1-4)Gal(b1-4)GlcNAc
# How it was run: as §1
# Gal(a1-4)GlcNAc = target: Gal(a1-4)GlcNAc
# How it was run: as §1
# Gal(a1-6)Glc = target: Gal(a1-6)Glc
# How it was run: as §1
binder,measurement,setting,value
Surfactant Protein D (Human); Neck + Carbohydrate Recognition Domain (NCRD) (Homo sapiens) (protein) MLLFLLSALVLLTQPLGYLEAEMKTYSHRTMPSACTLVMCSSVESGLPGRDRDGREGPRGEKGDPGLPGAAGQAGMPGQAGPVGPKGDNGSVGEPGPKGDTGPSGPPGPPGVPGPAGREGALGKQGNIGPQGKPGPKGEAGPKGEVGAPGMQGSAGARGLAGPKGERGVPGERGVPGNTGAAGSAGAMGPQGSPGARGPPGLKGDKGIPGDKGAKGESGLPDVASLRQQVEALQGQVQHLQAAFSQYKKVELFPNGQSVGEKIFKTAQFVKPFTEAQLLCTQAGGQLASPRSAAENAALQQLVVAKNEAAFLSMTDSKTEGKFTYPTGESLVYSNWAPGEPNDDGGSEDCVEIYTNGKWNDRACGEKRLVVCEF,glycan array binding signal (z-score),Fuc(a1-2)Gal,-0.188
same,glycan array binding signal (z-score),Fuc(a1-2)Gal(b1-3)GalNAc,-0.19
same,glycan array binding signal (z-score),[1],-0.184
same,glycan array binding signal (z-score),[2],-0.181
same,glycan array binding signal (z-score),[3],-0.189
same,glycan array binding signal (z-score),Fuc(a1-2)Gal(b1-3)GlcNAc,-0.191
same,glycan array binding signal (z-score),[4],-0.189
same,glycan array binding signal (z-score),[5],-0.193
same,glycan array binding signal (z-score),Fuc(a1-2)Gal(b1-4)Glc,-0.186
same,glycan array binding signal (z-score),Fuc(a1-2)Gal(b1-4)Glc6S,-0.185
same,glycan array binding signal (z-score),Fuc(a1-2)Gal(b1-4)GlcNAc,-0.191
same,glycan array binding signal (z-score),[6],-0.183
same,glycan array binding signal (z-score),[7],-0.178
same,glycan array binding signal (z-score),[8],-0.193
same,glycan array binding signal (z-score),[9],-0.179
same,glycan array binding signal (z-score),[10],-0.064
same,glycan array binding signal (z-score),[11],-0.168
same,glycan array binding signal (z-score),Fuc(a1-2)Gal6S(b1-4)Glc,-0.19
same,glycan array binding signal (z-score),[12],-0.196
same,glycan array binding signal (z-score),[13],-0.188
same,glycan array binding signal (z-score),Fuc(a1-2)[Gal(a1-3)]Gal,-0.183
same,glycan array binding signal (z-score),[14],-0.183
same,glycan array binding signal (z-score),[15],-0.188
same,glycan array binding signal (z-score),[16],-0.186
same,glycan array binding signal (z-score),[17],-0.176
same,glycan array binding signal (z-score),[18],-0.187
same,glycan array binding signal (z-score),[19],-0.184
same,glycan array binding signal (z-score),[20],-0.189
same,glycan array binding signal (z-score),[21],-0.187
same,glycan array binding signal (z-score),[22],-0.182
same,glycan array binding signal (z-score),[23],-0.155
same,glycan array binding signal (z-score),[24],-0.176
same,glycan array binding signal (z-score),[25],-0.177
same,glycan array binding signal (z-score),Fuc(a1-3)GlcNAc,-0.145
same,glycan array binding signal (z-score),[26],-0.192
same,glycan array binding signal (z-score),[27],-0.181
same,glycan array binding signal (z-score),[28],-0.19
same,glycan array binding signal (z-score),[29],-0.189
same,glycan array binding signal (z-score),[30],-0.181
same,glycan array binding signal (z-score),[31],-0.183
same,glycan array binding signal (z-score),[32],-0.188
same,glycan array binding signal (z-score),[33],-0.166
same,glycan array binding signal (z-score),[34],-0.154
same,glycan array binding signal (z-score),[35],-0.187
same,glycan array binding signal (z-score),[36],-0.083
same,glycan array binding signal (z-score),[37],-0.188
same,glycan array binding signal (z-score),Fuc(a1-4)GlcNAc,-0.07
same,glycan array binding signal (z-score),Fuc(b1-3)GlcNAc,-0.188
same,glycan array binding signal (z-score),Gal(a1-2)Gal,-0.166
same,glycan array binding signal (z-score),Gal(a1-3)Gal,-0.167
same,glycan array binding signal (z-score),Gal(a1-3)Gal(b1-3)GlcNAc,-0.152
same,glycan array binding signal (z-score),Gal(a1-3)Gal(b1-4)Glc,-0.18
same,glycan array binding signal (z-score),Gal(a1-3)Gal(b1-4)GlcNAc,-0.188
same,glycan array binding signal (z-score),[38],-0.184
same,glycan array binding signal (z-score),Gal(a1-3)GalNAc,-0.185
same,glycan array binding signal (z-score),[39],-0.184
same,glycan array binding signal (z-score),Gal(a1-4)Gal(b1-4)Glc,-0.189
same,glycan array binding signal (z-score),Gal(a1-4)Gal(b1-4)GlcNAc,-0.187
same,glycan array binding signal (z-score),Gal(a1-4)GlcNAc,-0.195
same,glycan array binding signal (z-score),Gal(a1-6)Glc,-0.189
